The campaign covered roughly 380,000 compounds. About 25 (0.007%) were called active. Inconclusive means that the source gave no clear call. Such entries were picked first, then a sample of the others. Calls follow the shape of the dose curve; as a rule, active = well fitted activation curve with a large enough effect; inconclusive = small, poorly fitted or top-dose-only effect; inactive = no such curve, though single readings can be large or run the other way. No potency is given beside an inconclusive call; the fits are too rough.
Each molecule was assayed against Glucagon-like peptide 1 receptor (Homo sapiens) (UniProt P43220) (assay: qHTS of GLP-1 Receptor Agonists). Conditions: HEK293 GLP-1R CRE-luciferase, luminescence, 4-6 h, cells express a hypersensitive GLP-1R form; activation: at 45.6 µM (top of the series) unless noted.
Sequence of UniProt P43220 (P43220 whole entry, looked up): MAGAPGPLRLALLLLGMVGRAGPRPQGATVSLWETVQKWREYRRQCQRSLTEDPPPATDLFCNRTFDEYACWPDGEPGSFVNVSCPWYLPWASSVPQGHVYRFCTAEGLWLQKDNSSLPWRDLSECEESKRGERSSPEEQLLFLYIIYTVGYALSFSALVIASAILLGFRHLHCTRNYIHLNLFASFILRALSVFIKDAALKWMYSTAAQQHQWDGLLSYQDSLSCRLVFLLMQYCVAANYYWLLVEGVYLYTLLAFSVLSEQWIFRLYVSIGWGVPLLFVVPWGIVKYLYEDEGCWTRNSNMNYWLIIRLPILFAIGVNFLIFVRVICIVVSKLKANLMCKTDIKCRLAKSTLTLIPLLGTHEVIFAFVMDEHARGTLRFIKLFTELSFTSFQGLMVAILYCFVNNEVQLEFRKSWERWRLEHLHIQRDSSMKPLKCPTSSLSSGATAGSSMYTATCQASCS
Text: The overall goal of this project was to develop a novel assay for discovering small molecule ligands for class B1 G protein-coupled receptors (GPCRs). Very few agonists (or inverse agonists) with generally weak activity for this entire group of physiologically important receptors are known to date. To establish proof-of-principle that this critical bottleneck can be overcome with a suitable screening approach, our studies focused on the class B1 receptor for glucagon-like peptide-1 (GLP-1R), a potential therapeutic target for diabetes and neurodegenerative disease.
The assay was developed in a "mix and measure" format using a cell-based functional readout. Toward this goal, stably transfected HEK293 cell clones were established that co-express (i) a cAMP-responsive luciferase reporter gene, and (ii) GLP-1Rs that upon ligand interaction either stimulate (agonists) or inhibit (inverse agonists) luciferase activity. In different cell lines to be used for screening, expressed GLP-1Rs are specifically optimized for high sensitivity detection of either weak agonists (hypersensitive receptor) or inverse agonists (constitutively active receptor mutant). In addition, control cell lines were developed that express either the cAMP-responsive reporter gene without recombinant GLP-1Rs (enabling initial exclusion of GLP-1R independent effects of candidate probes), or the reporter gene together with wild type GLP-1Rs (for confirmation of probe activity at this receptor), or the reporter gene in combination with the constitutively active orphan receptor GPR119 (enabling initial exclusion of GLP-1R independent inhibitory effects of candidate inverse agonists).
To that end, this assay was optimized for 1536-well format and screened against the MLSMR.
NIH Molecular Libraries Probe Production Network [MLPCN]
NIH Chemical Genomics Center [NCGC]
PI Name: Martin Beinborn, Tufts Medical Center
In a white solid 1536-well plate, 6 uL of cells are dispensed in DMEM without phenol red, 10% Nu serum, and 1% pen-strep medium. The plates are then incubated for 12 hours at 37 deg C at 5% CO2 before 23 nL of compounds are added. After a 4-6 hr incubation at37 deg C and 5% CO2, 3 uL of detection reagent are added and after a 12 min incubation at RT, a luminescent read is obtained on the ViewLux.
For activation in this document: % of control where 0% means no effect.
Potency is read from the fitted curve at half-maximal effect; tags tell the direction and shape of the fitted curve.

Row | Structure (SMILES) | Potency | activation
1 | CC1CCN(c2oc(-c3ccc(F)cc3)nc2C#N)CC1 | inconclusive [activator, single point] | –
2 | COc1ccc(-c2csc(NC(C)c3nc4cc(Cl)c(Cl)cc4n3CCCO)n2)cc1 (stereo unspecified) | – | inactive: 8.33%
3 | COc1ccccc1/C=N/Nc1nc(C)cc(C)n1 | – | inconclusive: 45% [activator]
4 | NNC(=O)c1sc2cc(C(F)(F)F)cnc2c1-c1cccnc1 | – | inactive: 6.36%
5 | CCOc1ccc(/C=N/Nc2nc(C)cs2)c(O)c1 | – | inactive: -6.67%
6 | Cc1ccc(NS(=O)(=O)c2cc(NC(=O)C(C)Oc3ccccc3)ccc2C)c(C)c1 (stereo unspecified) | – | inactive: -2.35%
7 | CCN1CCN(C(c2cccnc2)c2cc(Cl)c3cccnc3c2O)CC1 (stereo unspecified) | inconclusive [activator, single point] | –
8 | COc1ccc(C(=O)N2CCc3cc(OC)c(OC)cc3C2c2ccc(OC)c(OC)c2)cc1 (stereo unspecified) | inconclusive [activator, partial curve] | –
9 | N=C1C(c2ccccc2)=C(O)CN1NC(=O)c1ccccc1 | – | inconclusive: 40.2% [activator]
10 | COc1ccc(C(=O)c2sc(Nc3ccccc3)nc2N)cc1OC | inconclusive [activator, partial curve, poor fit] | –
11 | Cc1nn(CCC(=O)O)c2nc(-c3cccnc3)cc(C(F)(F)F)c12 | inconclusive [activator, partial curve, poor fit] | –
12 | OCCN(CCO)CC(O)COc1ccc(C23CC4CC(CC(C4)C2)C3)cc1 (stereo unspecified) | inconclusive [activator, single point] | –
13 | Clc1ccccc1CSc1cnnc2ccccc12 | inconclusive [activator, single point] | –
14 | CN(C)NC(=O)c1ccsc1NC(=O)c1ccc(S(=O)(=O)N(C)C)cc1 | inconclusive [activator, partial curve] | –
15 | CC(C)C[C@@H](CNCC(=O)[C@H](CC(=O)O)NC(=O)c1[nH]cnc1C(=O)N[C@H](CN)CC(C)C)NC(=O)c1nc[nH]c1C(=O)N[C@@H](Cc1ccccc1)C(=O)O | – | inactive: -3.81%
16 | Cc1ccc([N+](=O)[O-])c(OCCCN2CCCCCC2)c1 | – | inactive: -4.77%
17 | CCSc1nnc2ccc(-c3ccc(OC)c(OC)c3)nn12 | inconclusive [activator, partial curve] | –
18 | COCCn1cnc2c1c(=O)n(Cc1c(F)cccc1Cl)c(=O)n2Cc1ccccc1 | inconclusive [activator, single point] | –

Row | Structure (SMILES) | Potency | activation
19 | CC1=NN(C(=O)COc2ccccc2)C(O)(c2ccccc2)C1 (stereo unspecified) | – | inactive: -5.59%
20 | O=c1cc2c(nn1Cc1ccccc1Cl)-c1ccccc1CC2 | inconclusive [activator, single point] | –
21 | COc1ccc(CCNC(=O)COc2ccccc2[N+](=O)[O-])cc1OC | inconclusive [activator, partial curve, poor fit] | –
22 | COc1ccc(S(=O)(=O)n2cccc2)cc1OC | inconclusive [activator, partial curve, poor fit] | –
23 | CCc1nc2sc(C#N)c(N)c2c2c1CCCC2 | inconclusive [activator, full curve] | –
24 | COc1ccc(N(CC(=O)N/N=C/c2ccc(OC)c(OC)c2)S(=O)(=O)c2ccccc2)cc1 | inconclusive [activator, partial curve, poor fit] | –
25 | CCOc1ccccc1CNS(=O)(=O)c1ccc(-c2coc(C)n2)cc1 | – | inactive: 10.9%
26 | COc1ccc(-c2cc(C(=O)N3CCCCCC3)no2)cc1OC | inconclusive [activator, partial curve, poor fit] | –
27 | Cn1cc(CNC(=O)c2sc3cccc(Cl)c3c2Cl)cn1 | inconclusive [activator, single point] | –
28 | Cc1cc(NC(=O)CCC(=O)N(Cc2cccnc2)C(C(=O)NC(C)(C)C)c2ccccc2Cl)no1 (stereo unspecified) | – | inconclusive: 50.2% [activator]
29 | C=CCn1c(SCc2csc(C)n2)nc2sc3c(c2c1=O)CCCCC3 | inconclusive [activator, single point] | –
30 | C/C(=N\NC(=O)COc1cccc(Cl)c1)c1ccc2c(c1)OCCO2 | inconclusive [activator, full curve, poor fit] | –
31 | O=C(CN(Cc1ccco1)C(=O)c1ccc([N+](=O)[O-])cc1)Nc1ccccc1C(F)(F)F | – | inactive: -6.48%
32 | CCc1nc(N)nc(N)c1-c1ccc(N(C)Cc2ccccc2)c([N+](=O)[O-])c1 | inconclusive [activator, single point] | –
33 | CN(C)c1ccc(N=Nc2ccccc2C(=O)OCC(=O)N2CCCCCC2)cc1 | inconclusive [activator, single point] | –
34 | O=C(O)c1ccc(N/N=C/c2ccc(-c3ccccc3Cl)o2)cc1 | – | inconclusive: 42.9% [activator]
35 | Cc1ccc(-c2cccc(C(=O)NCc3ccccc3)n2)c2ccccc12 | – | inactive: 12.4%
36 | CC(C)(C)c1ccc(-c2nc(C#N)c(NCc3cccnc3)o2)cc1 | inconclusive [activator, single point] | –
